Data: US9447134B2 (priority 2012, dated 2016)

Legend:
[1] = molecular target: Ca. jejuni IMPDH (Campylobacter jejuni, UniProt Q0P9J4); assay: biochemical
From the text: FIG. 24 depicts for selected D, P, and Q Series compounds (i) data on inhibition of representative bacterial IMPDHs and (ii) antibacterial activity.

[2] = system: T. gondii/CpIMPDH; conditions: for activity against T. gondii/CpIMPDH (in words): hTERT human foreskin fibroblast host cells

Chain of Ca. jejuni IMPDH (Q0P9J4 entry or part of it): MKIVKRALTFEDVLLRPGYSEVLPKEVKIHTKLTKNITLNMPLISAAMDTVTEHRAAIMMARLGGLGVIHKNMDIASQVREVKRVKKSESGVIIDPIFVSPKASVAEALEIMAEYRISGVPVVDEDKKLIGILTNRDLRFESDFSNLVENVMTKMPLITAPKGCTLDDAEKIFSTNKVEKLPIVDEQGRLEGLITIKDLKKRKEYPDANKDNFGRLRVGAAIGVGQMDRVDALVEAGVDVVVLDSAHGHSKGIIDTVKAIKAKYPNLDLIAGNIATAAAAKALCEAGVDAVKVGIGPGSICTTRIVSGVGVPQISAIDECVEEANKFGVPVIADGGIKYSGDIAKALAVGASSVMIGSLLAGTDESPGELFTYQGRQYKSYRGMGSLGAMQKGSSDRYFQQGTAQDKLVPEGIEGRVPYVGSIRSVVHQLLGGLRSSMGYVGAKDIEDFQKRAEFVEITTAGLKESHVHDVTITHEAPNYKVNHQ

Row | Molecule | IC50 [1] [nM] | activity against T. gondii/CpIMPDH (in words) [2] | selectivity versus the wild-type strain [2]
1 | Cn1nc(CC(=O)Nc2ccc(Br)c(C(F)(F)F)c2)c2ccccc2c1=O [Compound D45] | 250 | sub-micromolar activity | –
2 | Cn1nc(CC(=O)Nc2ccc(Cl)c(F)c2)c2ccccc2c1=O [Compound D52] | 1100 | – | –
3 | Cn1nc(CC(=O)Nc2ccc(Cl)c(C(F)(F)F)c2)c2ccccc2c1=O [drawing 311] | – | sub-micromolar activity | > 30
4 | Cn1nc(CC(=O)Nc2ccc3oc4ccccc4c3c2)c2ccccc2c1=O [Compound D73, N-(dibenzo[b,d]furan-2-yl)-2-(3-methyl-4-oxo-3,4-dihydrophthalazin-1-yl)acetamide] | – | sub-micromolar activity | –
5 | N-(6,7,8,9-tetrahydrodibenzo[b,d]furan-5-yl)-2-(3-methyl-4-oxo-3,4-dihydro-phthalazin-1-yl)acetamide [Compound D67] | – | sub-micromolar activity | –
6 | Cn1nc(CC(=O)Nc2ccc(Cl)c(C(F)(F)F)c2)c2ccccc2c1=O [Compound D48] | – | sub-micromolar activity | ≥ 30
